# In all, about 310,000 compounds went through this assay and about 14,000 (4.5%) showed an effect of 50% or more. The effect is printed as a negative number. This is one part of the list.
# Molecular target: human ether-à-go-go-related gene (hERG) potassium channel (human, UniProt Q12809)
# Assay: primary screen, population patch clamp on CHO cells stably expressing hERG
# 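Note: peak tail current of the secondary pulse compared with the same well before compound.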
# Chain of human ether-à-go-go-related gene (hERG) potassium channel (Q12809 whole entry, looked up): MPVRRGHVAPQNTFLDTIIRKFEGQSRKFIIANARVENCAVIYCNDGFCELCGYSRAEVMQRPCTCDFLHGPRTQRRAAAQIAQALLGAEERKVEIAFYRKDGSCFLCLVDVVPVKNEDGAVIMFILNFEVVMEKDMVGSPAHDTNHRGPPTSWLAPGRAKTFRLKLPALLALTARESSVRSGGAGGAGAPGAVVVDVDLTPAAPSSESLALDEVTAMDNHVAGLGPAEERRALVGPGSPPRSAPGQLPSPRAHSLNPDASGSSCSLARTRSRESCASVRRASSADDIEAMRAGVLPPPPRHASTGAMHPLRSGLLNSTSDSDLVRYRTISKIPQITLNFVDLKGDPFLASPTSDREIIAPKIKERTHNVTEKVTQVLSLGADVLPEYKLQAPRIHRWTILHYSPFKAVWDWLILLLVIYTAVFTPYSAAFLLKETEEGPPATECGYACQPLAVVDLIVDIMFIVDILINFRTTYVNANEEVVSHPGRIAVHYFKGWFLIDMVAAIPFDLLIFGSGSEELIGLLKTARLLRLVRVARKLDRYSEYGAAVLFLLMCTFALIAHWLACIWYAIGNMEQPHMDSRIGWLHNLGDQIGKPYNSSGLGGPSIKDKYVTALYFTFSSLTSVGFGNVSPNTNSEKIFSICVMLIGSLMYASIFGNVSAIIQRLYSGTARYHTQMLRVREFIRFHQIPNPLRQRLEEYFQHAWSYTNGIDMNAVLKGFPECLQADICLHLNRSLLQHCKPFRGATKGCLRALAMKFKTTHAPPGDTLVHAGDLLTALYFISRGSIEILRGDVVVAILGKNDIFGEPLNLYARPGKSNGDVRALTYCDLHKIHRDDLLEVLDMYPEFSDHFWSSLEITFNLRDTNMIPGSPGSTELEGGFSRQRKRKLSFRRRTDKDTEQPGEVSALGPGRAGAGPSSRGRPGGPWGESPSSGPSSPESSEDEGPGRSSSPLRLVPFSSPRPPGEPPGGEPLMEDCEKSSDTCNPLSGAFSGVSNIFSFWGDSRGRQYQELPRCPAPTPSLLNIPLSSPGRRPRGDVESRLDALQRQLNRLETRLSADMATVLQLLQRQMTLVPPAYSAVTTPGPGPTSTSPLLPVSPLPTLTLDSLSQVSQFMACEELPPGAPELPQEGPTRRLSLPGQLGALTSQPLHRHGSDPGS
row,SMILES,"hERG current change (%, negative = inhibition) at 10uM"
1,COC(=O)CN1C(=O)Nc2ccc(Br)cc2C1c1ccccc1 (stereo not shown),-14.6%
2,COc1ccc(NC(=O)N2C[C@@H]3C[C@@H](C2)c2cccc(=O)n2C3)cc1,7.74%
3,Cc1cc(C)cc(N(CC(=O)NC2CCCC2)C(=O)CNC(=O)c2cccs2)c1,18%
4,O=C(Nc1ccc(Cl)cc1C(F)(F)F)c1ccccc1,8.81%
5,O=C(Cn1ccccc1=O)c1ccc(Cl)cc1,32.1%
6,CCn1c(CC(=O)Nc2ccccc2)nnc1SCC(=O)Nc1ccccc1C(=O)OC,3.97%
7,Cn1ncc2c(N3CCN(c4ccccc4F)CC3)ncnc21,-28.4%
8,CC(=O)N1CCN(C(=S)c2ccc(-c3ccc(Cl)cc3)o2)CC1,-28.2%
9,COc1cc(C(=O)N2C[C@@H]3CCC[C@H]2C3)ccc1OC1CCN(C(C)=O)CC1,15.1%
10,OCC1CCCN(C(=S)NCCc2ccccc2)C1 (stereo not shown),0.885%
11,COC(=O)c1ccc(CNC(=O)N2CCN(S(=O)(=O)c3ccc(C)cc3)CC2)cc1,-3.35%
12,COc1ccc2c(c1)C(=O)N(c1ccc(C)cc1)C(=O)C2,16%
13,O=C(NCCN1CCOCC1)c1ccc(Cl)c(S(=O)(=O)N2CCOCC2)c1,13.1%
14,CC(C)C[C@@H](CSc1ccc(Br)cc1)N1CCN(CC(C)C)CCC1=O,-68.6%
15,Cc1oc(C(N)=O)nc1-c1ccccc1,17.8%
16,COc1cccc(CNC(=O)C2CCCN(S(=O)(=O)c3cnc[nH]3)C2)c1 (stereo not shown),-12.2%
17,O=C(CNC(=O)c1ccc(Br)cc1)NC1=NCCS1,4.4%
18,Cc1nnc(C)n1/N=C/c1ccccc1,5.49%
19,C=CCn1c(SCc2cccnc2)nnc1-c1ccncc1,-1.49%
20,CC1=NNC(=O)C1C(c1ccc(Cl)cc1)C(C#N)C#N (stereo not shown),-2.37%

row,SMILES,"hERG current change (%, negative = inhibition) at 10uM"
1,Cc1ccc(C(=O)NNC(=O)c2csc(N3CCOCC3)n2)o1,23%
2,S=c1[nH]nc(-c2ccncc2)n1CC1CCCO1 (stereo not shown),22.2%
3,O=C(O)C(=O)O.c1ccc2c(OCCCN3CCCCCC3)cccc2c1,-65.8%
4,Cc1ccc(OCCNCc2ccccc2)c(C)c1.O=C(O)C(=O)O,-6.1%
5,O=C(Nc1ccc([N+](=O)[O-])cc1)C(Cc1ccccc1)N1C(=O)c2cccc3cccc(c23)C1=O (stereo not shown),9.65%
6,COc1ccc(S(=O)(=O)N2CCCCC2C)cc1 (stereo not shown),4.81%
7,Cc1[nH]c2ccccc2c1C(=O)CSc1nc2ccccc2c(=O)n1CCCN1CCOCC1,-5.57%
8,O=C(Nc1ccccc1C(=O)N1CCCCCC1)c1ccccc1Cl,11.6%
9,O=C(Nc1ccccn1)c1onc2c1CCCC2,-0.419%
10,CNC(=O)c1ccccc1S(=O)c1ccccc1C#N (stereo not shown),2.49%
11,CCCCc1nnc(NC(=O)CSCc2cc(=O)n3ccsc3n2)s1,10%
12,CCCc1cc(=O)oc2cc(OC(C)C(=O)NCc3ccccn3)c(Cl)cc12 (stereo not shown),-15%
13,CN(c1ccc(OCC(=O)OCC(=O)NCc2ccco2)cc1)S(=O)(=O)c1ccc2ccccc2c1,2.22%
14,CCOC(=O)C(=NCC1CCCO1)NNc1ccccc1Cl (stereo not shown),-9.39%
15,Cc1ccc(C2C(C#N)=C3N=C(N)c4ccccc4N3C3=C2C(=O)CCC3)cc1 (stereo not shown),-6.54%
16,O=C(COC(=O)Cn1c(C(F)(F)F)nc2ccccc21)Nc1ccc2c(c1)OCCO2,-2.54%
17,Cc1nc2sccn2c(=O)c1S(=O)(=O)Nc1ccc(N2CCOCC2)c(Cl)c1,18.6%
18,CCCCCCc1cc2cc(C(=O)NCc3ccccc3)c(=N)oc2cc1O,5.76%
19,CCN(CC)P(=O)(C(NC(=O)OC)C(F)(F)C(F)(F)C(F)(F)C(F)F)N(CC)CC (stereo not shown),5.03%
20,CC(C)c1nnc(NC(=O)c2cc3cc(Br)ccc3oc2=O)s1,-2.45%

row,SMILES,"hERG current change (%, negative = inhibition) at 10uM"
1,O=C(Nc1cccc(Cl)c1)c1cc([N+](=O)[O-])ccc1N1CCN(CCO)CC1,-53%
2,COc1ccc(NC(=O)CN(C)C(=O)c2csc3c2CCCC3)cc1,-4.53%
3,Cc1ccccc1CN1CCN(C(=O)c2cc(-c3ccncc3)nc3ccccc23)CC1,-76.7%
4,COc1ccccc1CNC(=O)COC(=O)CC1CC2CCC1C2 (stereo not shown),-14.1%
5,COc1cc(/C=C2/C(=N)N3C(=NC2=O)SN=C3S(=O)(=O)C(C)C)ccc1OS(=O)(=O)c1ccccc1,24.4%
6,Cc1ccc(C(=O)CNc2ccc(Cl)cc2)cc1,10.7%
7,COc1ccc(CC(=O)OCC(=O)Nc2ccc(Br)cc2)cc1,2.68%
8,O=S(=O)(c1cccc(F)c1)N1CCN(c2ncnc3scc(-c4ccc(F)cc4)c23)CC1,0.83%
9,CCCC(c1nnnn1CC1CCCO1)N1CCN(c2cc(Cl)ccc2C)CC1.Cl (stereo not shown),-8.06%
10,CC(CNc1ccccc1O)C(=O)O (stereo not shown),7.33%
11,CSc1ncccc1C(=O)NCCc1ccccc1F,18.7%
12,CCCS(=O)(=O)N1CCCC(C(=O)NCCCOC(C)C)C1 (stereo not shown),5.98%
13,C=CC(=O)NC(C)(C)Cc1ccccc1,3.63%
14,O=C(Nn1c(=S)[nH]c2ccccc2c1=O)c1ccncc1,11.8%
15,COc1ccc(C(=O)CC(=O)c2ccc(F)cc2)cc1,24.1%
16,O=C(Nc1ccc(Cl)cc1)OCc1cn(-c2ccc(Cl)cc2)nn1,4.47%
17,CCOC(=O)c1c(CN2CCCCC2C)oc2ccc(OC)cc12.Cl (stereo not shown),-58.9%
18,Cc1ccc(NC(=O)C2CCN(S(=O)(=O)c3cccs3)CC2)cc1C,-31.1%
